Article PMC12136788
Some of the results follow.

T1: UNK ZnF1-3 (human, UniProt Q9C0B0 31-174)
T1 sequence: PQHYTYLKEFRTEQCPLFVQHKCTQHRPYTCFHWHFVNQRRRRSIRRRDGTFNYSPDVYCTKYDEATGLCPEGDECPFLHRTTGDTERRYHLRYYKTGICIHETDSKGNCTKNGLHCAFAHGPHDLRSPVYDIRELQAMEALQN

B1: 64356465_64356585_95_CDS_ENSG00000118482_ENST00000393387|human|control|control (ssRNA)
RNA: GGGAGUUCUACAGUCCGACGAUCGUCCUCUAAGACAUUUUGACUUGCACUAAAAUCCUCACAGACUUCAUUCUCCAGGUUGGAUCCUAGAAAUAGGGCAUCAUCUAAGUGUUCAGUAGGAAUUAAAUGAUUAAAUGUAUCAACCAACAGAGGAUUGAGCAUCA
B2: chr1:154963231:154963232:+_ENSMUSG00000042751_ENSMUST00000043313|mus_hu|motif|central (ssRNA)
RNA: GGGAGUUCUACAGUCCGACGAUCCUUGGCCUUCUCUACUGGGUGUGGCCCUGAUGAACUCACUGAGUGCUGAGGCUGGCGGCAAUGUCCUAUCAGAGGGGAAGUAAUACCACAGGAGCACAUCAAGACUACAAACAUAAAGAACAACAGAGGAUUGAGCAUCA
B3: chr5:121768680:121768681:+_ENSMUSG00000042744_ENSMUST00000119892|mus_hu|motif|central (ssRNA)
RNA: GGGAGUUCUACAGUCCGACGAUCUUGGGCAGUUUUCUUUUUGUCGCCUGUGGAUAGUCCACUCACAGUCUCUGGGUUGAUAGACUCGGCAGGUGGCCCAAUGCUGACGAUGAGGCCUGACUGUGCCCACUUGGUGGCUUUCCGCAACAGAGGAUUGAGCAUCA
B4: chr4:11166509:11166510:-_ENSMUSG00000040738_ENSMUST00000108319|mus_mus|FALSE|FALSE (ssRNA)
RNA: GGGAGUUCUACAGUCCGACGAUCUUGAGAGUUAUUAUCAGAAGAAGGUACAAGAACAUCACACGCUUGACAAUAGCCAGCUAACCGCUUCUCAUCUAUGGUACAAUGAAGAGAUAAUGAACCUAUCUCUGCAAGUAGUUCUUUCAACAGAGGAUUGAGCAUCA
B5: chr7:17147909:17147910:-_ENSMUSG00000058230_ENSMUST00000075845|mus_hu|FALSE|FALSE (ssRNA)
RNA: GGGAGUUCUACAGUCCGACGAUCCUUACGUUUGGCUGAAUAAAAAACAAUGUACCCAUGAACCAACCGGCUCUUUCUGAUGCUAAAGGAGGAAUGGUAUGAAAGAACAGACAGUUCAAUCCGCUUCUUGUGCAGUCCGAUUGGCAACAGAGGAUUGAGCAUCA
B6: 90017834_90017954_1224_CDS_ENSMUSG00000057706_ENSMUST00000082237|mouse|control|control (ssRNA)
RNA: GGGAGUUCUACAGUCCGACGAUCCAGGCGUGAAGUAGCAGCUGCGCUGCCGCUGGUCCCACCACCGAAGUAAGAGUCUGUGGAUGCGCUGCCAAGCGAGCUGGAGCUGUCGUUGCGAUAGCUGGAGAAGGGCUUGCGGCCAGGCAACAGAGGAUUGAGCAUCA
B7: chr1:23636438:23636439:-_ENSG00000125944_ENST00000302271|hu_hu|FALSE|FALSE (ssRNA)
RNA: GGGAGUUCUACAGUCCGACGAUCUUGUAGGGCAGAUUUCAAAAAGGUGUGAAGUUAUAACAAUUUAAAAACACAGUUAACCUACUUCUAGGAAUGCAAAACAUACAAUCAUAGGUUAUUUUCAAUACAAGAAAACUUAAAUUUCAACAGAGGAUUGAGCAUCA
B8: chr6:112015657:112015658:-_ENSG00000010810_ENST00000368667|hu_hu|motif|central (ssRNA)
RNA: GGGAGUUCUACAGUCCGACGAUCAGCAAUCUUGCAUAUGAGUCCAUUCCCCACUAGAAUGUUUGCUGAUCGCAGAUCUCGGUGGAUAUAAUUCAUGCGCUCGAUGUAAGCCAUUCCUGCAGCCACCUGUGCUGCCAUGUCCACCAACAGAGGAUUGAGCAUCA
B9: 105372790_105372910_1294_CDS_ENSG00000107957_ENST00000369774|human|control|control (ssRNA)
RNA: GGGAGUUCUACAGUCCGACGAUCCUUGUCCCCAGACGCCUUCUUGUUCAGCAGGUUGCUGAUCUCCAUGAUGUUCCCAAUGAUCUCCACUGGGCCGGCCAGGUUCUUCUUCCGGGUUGGCAGGUCAUCCUUGGCCUUCUUCAGCAACAGAGGAUUGAGCAUCA
B10: chr1:163117127:163117128:-_ENSG00000143248_ENST00000313961|hu_mus|hu_hu_hu_mus_False|48_48 (ssRNA)
RNA: GGGAGUUCUACAGUCCGACGAUCUGCUACAAAGGAUGUAACUCAACUCACAGGGCAACUUUUGGAAGCCUGACCAGAUGACUACUUGAUUAACUCCUUAUAAAAUUCAGAGCGCACAAAGCGGGGCAGAGAAUCCUUCUCCAUCAACAGAGGAUUGAGCAUCA
B11: chr2:14037654:14037655:+_ENSMUSG00000026718_ENSMUST00000102960|mus_mus|motif|central (ssRNA)
RNA: GGGAGUUCUACAGUCCGACGAUCAUGACCCUUAUUUAAUACAUUGCUUACUUCACUAGCAAAGUCUCUUGAACAUACUUCGGAGUGAAAAAUUUUGCCACAGUUUGAUACACAUGCUCCCAGAAGAGUUAAGGCUUGCAUAGCCAACAGAGGAUUGAGCAUCA
B12: 95778887_95780000_1775_3pUTR_ENSMUSG00000064210_ENSMUST00000071874|mouse|control|control (ssRNA)
RNA: GGGAGUUCUACAGUCCGACGAUCGAGUAAUAGUUGACAAACUGGAACAAGAACAUCUUCAUGGUCAGGCUGUUCUCAUAAUCCGUCUGGGUCCUUGGGAGCUCGAAGUUGGUGAUCAUGAUGGCCACCUUCUCGUAGAUCGUGCAACAGAGGAUUGAGCAUCA
B13: 111180571_111180691_72_5pUTR_ENSG00000186298_ENST00000335007|human|control|control (ssRNA)
RNA: GGGAGUUCUACAGUCCGACGAUCACACCUCCUUUCCCACGCCACGAGCAGAGGCGGUGGUGGCGGCGGUGGCAGCAGCCGCGGCGGGUCCCCCCCCUGCCACCCCGCUCCCUACUUCCUCCUUCUCUCCCCACUGGAACCACGCAACAGAGGAUUGAGCAUCA
B14: chr12:39756943:39756944:-_ENSG00000139116_ENST00000544797|hu_hu|FALSE|FALSE (ssRNA)
RNA: GGGAGUUCUACAGUCCGACGAUCUGUUUGGCUAUUACCCCCGAGGGAAUCCUGUAGUAGUCUUGUUAGCUUGGAAUCUCUAUAGGGGACAUGUGUGGCCCUCUUGCUCUUGUCUCCCAAGGCACUUAUUACAUUGCCAAGUGCCAACAGAGGAUUGAGCAUCA

These binders were tested against T1, UNK ZnF1-3 (assay: nsRBNS (natural sequence RNA bind-n-seq); RBNS binding buffer (assumed for nsRBNS): 25 mM Tris pH 7.5, 150 mM KCl, 3 mM MgCl2, 0.01% Triton X-100, 500 ug/ml BSA, 20 U/ml SUPERase-In, 4 C; UNK is unkempt and MSI1 is Musashi-1; names of the RNAs are library labels; protein concentration not given here; high values mean tight binding).

| Binder | binding signal |
| --- | --- |
| B1 | 1.62 enrichment R |
| B2 | 1.36 enrichment R |
| B3 | 0.469 enrichment R |
| B4 | 1.06 enrichment R |
| B5 | 1.19 enrichment R |
| B6 | 0.811 enrichment R |
| B7 | 1.19 enrichment R |
| B8 | 1.08 enrichment R |
| B9 | 0.501 enrichment R |
| B10 | 1.17 enrichment R |
| B11 | 1.55 enrichment R |
| B12 | 0.59 enrichment R |
| B13 | 0.865 enrichment R |
| B14 | 0.626 enrichment R |
